{
  "source": "the supplement of paper PMC8728848",
  "binders": {"B1": {"name": "Clrb (Mus musculus) (protein)", "chain": "ITGATKTEQIPVNKTYAACPQNWIGVENKCFYFSEYPSNWTFAQAFCMAQEAQLARFDNQDELNFLMRYKANFDSWIGLHRESSEHPWKWTDNTEYNNTIPIRGEERFAYLNNNGISSTRIYSLRMWICSKLNSYSLHCQTPFFPSGTKHHHHHHHHG"}},
  "assay_in_all_cases": "glycan array binding signal (z-score within array); higher = stronger binding",
  "settings_in_all_cases": "glycan notation: IUPAC condensed, linker removed",
  "key": {"[1]": {"biological_target": "GlcNAc(b1-3)Gal(b1-4)GlcNAc(b1-3)GalNAc", "outline": "(§1)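 Arrays were curated from the Consortium for Functional Glycomics database, 3228 in total, and kept only where the protein sequence was available. Binding is expressed as a within-array Z-score. This score was averaged across arrays of the same protein sequence at different concentrations or buffers and across linkers, and negative values can be read as non-binding.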"}, "[2]": {"biological_target": "GlcNAc(b1-3)Gal(b1-4)GlcNAc(b1-3)[GlcNAc(b1-3)Gal(b1-4)GlcNAc(b1-3)]GalNAc", "outline": "as §1"}, "[3]": {"biological_target": "GlcNAc(b1-3)Gal(b1-4)GlcNAc(b1-6)[Gal(b1-3)]GalNAc", "outline": "as §1"}, "[4]": {"biological_target": "GlcNAc(b1-3)Gal(b1-4)GlcNAc(b1-6)[GlcNAc(b1-3)Gal(b1-3)]GalNAc", "outline": "as §1"}, "[5]": {"biological_target": "GlcNAc(b1-3)Gal(b1-4)GlcNAc(b1-6)[GlcNAc(b1-3)]Gal(b1-4)GlcNAc", "outline": "as §1"}, "GlcNAc(b1-3)GalNAc": {"biological_target": "GlcNAc(b1-3)GalNAc", "outline": "as §1"}, "GlcNAc(b1-3)Man": {"biological_target": "GlcNAc(b1-3)Man", "outline": "as §1"}, "[6]": {"biological_target": "GlcNAc(b1-3)[GlcNAc(b1-4)][GlcNAc(b1-6)]GlcNAc", "outline": "as §1"}, "[7]": {"biological_target": "GlcNAc(b1-3)[GlcNAc(b1-6)]Gal(b1-4)GlcNAc", "outline": "as §1"}, "[8]": {"biological_target": "GlcNAc(b1-3)[GlcNAc(b1-6)]GalNAc", "outline": "as §1"}, "[9]": {"biological_target": "GlcNAc(b1-4)Gal(b1-4)GlcNAc", "outline": "as §1"}, "GlcNAc(b1-4)GlcNAc": {"biological_target": "GlcNAc(b1-4)GlcNAc", "outline": "as §1"}, "[10]": {"biological_target": "GlcNAc(b1-4)GlcNAc(b1-4)GlcNAc", "outline": "as §1"}, "[11]": {"biological_target": "GlcNAc(b1-4)GlcNAc(b1-4)GlcNAc(b1-4)GlcNAc(b1-4)GlcNAc", "outline": "as §1"}, "[12]": {"biological_target": "GlcNAc(b1-4)GlcNAc(b1-4)GlcNAc(b1-4)GlcNAc(b1-4)GlcNAc(b1-4)GlcNAc", "outline": "as §1"}, "[13]": {"biological_target": "GlcNAc(b1-4)[GlcNAc(b1-6)]GalNAc", "outline": "as §1"}, "[14]": {"biological_target": "GlcNAc(b1-6)Gal(b1-4)GlcNAc", "outline": "as §1"}, "GlcNAc(b1-6)GalNAc": {"biological_target": "GlcNAc(b1-6)GalNAc", "outline": "as §1"}, "[15]": {"biological_target": "GlcNAc6S(b1-3)Gal(b1-4)GlcNAc", "outline": "as §1"}, "Kdn(a2-3)Gal(b1-3)GalNAc": {"biological_target": "Kdn(a2-3)Gal(b1-3)GalNAc", "outline": "as §1"}, "Kdn(a2-3)Gal(b1-3)GlcNAc": {"biological_target": "Kdn(a2-3)Gal(b1-3)GlcNAc", "outline": "as §1"}, "Kdn(a2-3)Gal(b1-4)Glc": {"biological_target": "Kdn(a2-3)Gal(b1-4)Glc", "outline": "as §1"}, "Kdn(a2-3)Gal(b1-4)GlcNAc": {"biological_target": "Kdn(a2-3)Gal(b1-4)GlcNAc", "outline": "as §1"}, "[16]": {"biological_target": "Kdn(a2-3)Gal(b1-4)[Fuc(a1-3)]GlcNAc", "outline": "as §1"}, "Kdn(a2-6)Gal(b1-4)GlcNAc": {"biological_target": "Kdn(a2-6)Gal(b1-4)GlcNAc", "outline": "as §1"}, "[17]": {"biological_target": "Man(a1-2)Man(a1-2)Man(a1-3)Man", "outline": "as §1"}, "[18]": {"biological_target": "Man(a1-2)Man(a1-2)Man(a1-6)[Man(a1-3)]Man", "outline": "as §1"}, "Man(a1-2)Man(a1-3)Man": {"biological_target": "Man(a1-2)Man(a1-3)Man", "outline": "as §1"}, "[19]": {"biological_target": "Man(a1-2)Man(a1-3)[Man(a1-2)Man(a1-6)]Man", "outline": "as §1"}, "[20]": {"biological_target": "Man(a1-2)Man(a1-3)[Man(a1-2)Man(a1-6)]Man(a1-6)[Man(a1-2)Man(a1-2)Man(a1-3)]Man", "outline": "as §1"}, "[21]": {"biological_target": "Man(a1-2)Man(a1-3)[Man(a1-2)Man(a1-6)]Man(a1-6)[Man(a1-2)Man(a1-2)Man(a1-3)]Man(b1-4)GlcNAc(b1-4)GlcNAc", "outline": "as §1"}, "[22]": {"biological_target": "Man(a1-2)Man(a1-3)[Man(a1-6)]Man(a1-6)[Man(a1-2)Man(a1-3)]Man(b1-4)GlcNAc(b1-4)GlcNAc", "outline": "as §1"}, "[23]": {"biological_target": "Man(a1-2)Man(a1-6)[Man(a1-3)]Man(a1-6)[Man(a1-2)Man(a1-2)Man(a1-3)]Man", "outline": "as §1"}, "[24]": {"biological_target": "Man(a1-2)Man(a1-6)[Man(a1-3)]Man(a1-6)[Man(a1-2)Man(a1-2)Man(a1-3)]Man(b1-4)GlcNAc(b1-4)GlcNAc", "outline": "as §1"}, "Man(a1-3)[Man(a1-6)]Man": {"biological_target": "Man(a1-3)[Man(a1-6)]Man", "outline": "as §1"}, "[25]": {"biological_target": "Man(a1-3)[Man(a1-6)]Man(a1-6)[Man(a1-2)Man(a1-3)]Man(b1-4)GlcNAc(b1-4)GlcNAc", "outline": "as §1"}, "[26]": {"biological_target": "Man(a1-3)[Man(a1-6)]Man(a1-6)[Man(a1-3)]Man", "outline": "as §1"}, "[27]": {"biological_target": "Man(a1-3)[Man(a1-6)]Man(a1-6)[Man(a1-3)]Man(b1-4)GlcNAc(b1-4)GlcNAc", "outline": "as §1"}, "[28]": {"biological_target": "Man(a1-3)[Man(a1-6)]Man(b1-4)GlcNAc(b1-4)GlcNAc", "outline": "as §1"}, "[29]": {"biological_target": "Man(a1-3)[Man(a1-6)]Man(b1-4)GlcNAc(b1-4)[Fuc(a1-6)]GlcNAc", "outline": "as §1"}, "Man(a1-6)Man": {"biological_target": "Man(a1-6)Man", "outline": "as §1"}, "Man(b1-4)GlcNAc": {"biological_target": "Man(b1-4)GlcNAc", "outline": "as §1"}, "MurNAc(b1-4)GlcNAc": {"biological_target": "MurNAc(b1-4)GlcNAc", "outline": "as §1"}, "Neu5Ac(a2-3)Gal": {"biological_target": "Neu5Ac(a2-3)Gal", "outline": "as §1"}, "[30]": {"biological_target": "Neu5Ac(a2-3)Gal(b1-3)GalNAc", "outline": "as §1"}},
  "note": "This is one part of the list.",
  "data": [
    {"binder": "B1", "values": [
      {"measurement": "glycan array binding signal (z-score)", "setting": "[1]", "value": -0.422},
      {"measurement": "glycan array binding signal (z-score)", "setting": "[2]", "value": -0.436},
      {"measurement": "glycan array binding signal (z-score)", "setting": "[3]", "value": -0.36},
      {"measurement": "glycan array binding signal (z-score)", "setting": "[4]", "value": -0.152},
      {"measurement": "glycan array binding signal (z-score)", "setting": "[5]", "value": 0.795},
      {"measurement": "glycan array binding signal (z-score)", "setting": "GlcNAc(b1-3)GalNAc", "value": -0.389},
      {"measurement": "glycan array binding signal (z-score)", "setting": "GlcNAc(b1-3)Man", "value": -0.377},
      {"measurement": "glycan array binding signal (z-score)", "setting": "[6]", "value": -0.339},
      {"measurement": "glycan array binding signal (z-score)", "setting": "[7]", "value": 0.188},
      {"measurement": "glycan array binding signal (z-score)", "setting": "[8]", "value": 0.459},
      {"measurement": "glycan array binding signal (z-score)", "setting": "[9]", "value": -0.413},
      {"measurement": "glycan array binding signal (z-score)", "setting": "GlcNAc(b1-4)GlcNAc", "value": 3.54},
      {"measurement": "glycan array binding signal (z-score)", "setting": "[10]", "value": 3.47},
      {"measurement": "glycan array binding signal (z-score)", "setting": "[11]", "value": 3.75},
      {"measurement": "glycan array binding signal (z-score)", "setting": "[12]", "value": 7.67},
      {"measurement": "glycan array binding signal (z-score)", "setting": "[13]", "value": 3.69},
      {"measurement": "glycan array binding signal (z-score)", "setting": "[14]", "value": 1.87},
      {"measurement": "glycan array binding signal (z-score)", "setting": "GlcNAc(b1-6)GalNAc", "value": 1.63},
      {"measurement": "glycan array binding signal (z-score)", "setting": "[15]", "value": 0.083},
      {"measurement": "glycan array binding signal (z-score)", "setting": "Kdn(a2-3)Gal(b1-3)GalNAc", "value": -0.342},
      {"measurement": "glycan array binding signal (z-score)", "setting": "Kdn(a2-3)Gal(b1-3)GlcNAc", "value": -0.157},
      {"measurement": "glycan array binding signal (z-score)", "setting": "Kdn(a2-3)Gal(b1-4)Glc", "value": -0.357},
      {"measurement": "glycan array binding signal (z-score)", "setting": "Kdn(a2-3)Gal(b1-4)GlcNAc", "value": -0.287},
      {"measurement": "glycan array binding signal (z-score)", "setting": "[16]", "value": -0.378},
      {"measurement": "glycan array binding signal (z-score)", "setting": "Kdn(a2-6)Gal(b1-4)GlcNAc", "value": -0.348},
      {"measurement": "glycan array binding signal (z-score)", "setting": "[17]", "value": -0.273},
      {"measurement": "glycan array binding signal (z-score)", "setting": "[18]", "value": -0.42},
      {"measurement": "glycan array binding signal (z-score)", "setting": "Man(a1-2)Man(a1-3)Man", "value": -0.386},
      {"measurement": "glycan array binding signal (z-score)", "setting": "[19]", "value": -0.336},
      {"measurement": "glycan array binding signal (z-score)", "setting": "[20]", "value": -0.221},
      {"measurement": "glycan array binding signal (z-score)", "setting": "[21]", "value": -0.252},
      {"measurement": "glycan array binding signal (z-score)", "setting": "[22]", "value": -0.42},
      {"measurement": "glycan array binding signal (z-score)", "setting": "[23]", "value": -0.082},
      {"measurement": "glycan array binding signal (z-score)", "setting": "[24]", "value": -0.503},
      {"measurement": "glycan array binding signal (z-score)", "setting": "Man(a1-3)[Man(a1-6)]Man", "value": -0.406},
      {"measurement": "glycan array binding signal (z-score)", "setting": "[25]", "value": -0.424},
      {"measurement": "glycan array binding signal (z-score)", "setting": "[26]", "value": -0.427},
      {"measurement": "glycan array binding signal (z-score)", "setting": "[27]", "value": -0.44},
      {"measurement": "glycan array binding signal (z-score)", "setting": "[28]", "value": -0.297},
      {"measurement": "glycan array binding signal (z-score)", "setting": "[29]", "value": -0.228},
      {"measurement": "glycan array binding signal (z-score)", "setting": "Man(a1-6)Man", "value": -0.312},
      {"measurement": "glycan array binding signal (z-score)", "setting": "Man(b1-4)GlcNAc", "value": -0.371},
      {"measurement": "glycan array binding signal (z-score)", "setting": "MurNAc(b1-4)GlcNAc", "value": 2.51},
      {"measurement": "glycan array binding signal (z-score)", "setting": "Neu5Ac(a2-3)Gal", "value": -0.322},
      {"measurement": "glycan array binding signal (z-score)", "setting": "[30]", "value": -0.361}
    ]}
  ]
}
